# Reference: PubChem BioAssay AID686971 (National Center for Advancing Translational Sciences (NCATS), 2013)
# Among all 360,000 compounds or so, about 7,500 (2.1%) were called active. The inconclusive results got no clear call from the source; some entries with a clear call stand among them for comparison. Calls follow the shape of the dose curve; as a rule, active = well fitted cell-killing curve with a large enough effect; inconclusive = small, poorly fitted or top-dose-only effect, or effect the other way, or another doubt; inactive = no such curve, though single readings can be large or run the other way. Potencies of inconclusive entries are left out as doubtful fits.
# Assay: qHTS for induction of synthetic lethality in tumor cells producing 2HG: qHTS for the HT-1080-IDH1KD cell line;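 as to activity, negative = toxicity: 0% = DMSO wells and -100% = cell-free medium wells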
# Details: HT-1080 IDH1 knockdown viability, ATP luminescence, 48 h; activity, negative = toxicity: at 46.1 µM (top of the series) unless noted
# Summary of the method: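 Knockdown cells (IDH1KD HT-1080) received compounds 2 h after plating at 750 cells/well and were kept 48 h at 37 °C in 5% FBS RPMI. A CellTiter-Glo luminescence read gave % activity for curve fitting.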
# Potency is read from the fitted curve at half-maximal effect; tags tell the direction and shape of the fitted curve.
Structure (SMILES),Potency,"activity, negative = toxicity"
CC(=O)N1Cc2cc(C(=O)NCC(F)(F)F)nc(-c3cccc(-c4cccnc4)c3)c2[C@@H]1CCO,active: 6.51 µM,–
Cc1ccc(C)c(NC(=O)/C(C#N)=C/c2cn(CC(=O)NCc3ccco3)c3ccccc23)c1,"inconclusive [cytotoxic, full curve]",–
Cc1oc(-c2cccc(Cl)c2)nc1CN1CCCC(C(=O)NC(C)c2ccc3c(c2)OCCO3)C1 (configuration not stated),active: 16.4 µM,–
CC(C)(C)NC(=S)N1CCC2CC1c1cc(-c3ccc4c(c3)OCO4)ccc12 (configuration not stated),–,inactive: 4.7%
Cc1cccc(NC(=O)CSc2nc(C)c(CC(=O)c3ccc(Br)cc3)c(C)c2C#N)c1C,"inconclusive [cytotoxic, full curve, poor fit]",–
CCCC(=O)N1CCN(c2nc3ccc(Br)cc3s2)CC1,"inconclusive [cytotoxic, single point]",–
CSCC[C@H](NC(=O)OC(C)(C)C)c1nnc(SCc2ccc(F)cc2)o1,–,inactive: -6.52%
Cc1ccccc1CC(=O)c1ccc(O)c(C)c1O,"inconclusive [cytotoxic, single point]",–
Cc1ccc(-c2ccc(=O)n(CC(=O)Nc3ccc4c(c3)OCCO4)n2)cc1,–,inactive: 4.77%
CCOc1ccc(CCN2C(=O)C(=O)N([C@@H](CC(C)C)CN3CCC[C@@H]3CN3C(=O)C(=O)NC[C@@H]3Cc3ccccc3)C[C@@H]2CC(C)C)cc1,"inconclusive [cytotoxic, single point]",–
Cc1cccc(N(Cc2cc3ccc(C)cc3[nH]c2=O)S(=O)(=O)c2ccccc2)c1,–,inactive: 10.1%
O=C(COC(=O)c1cccc(S(=O)(=O)NCc2ccccc2)c1)c1ccc2c(c1)OCCO2,"inconclusive [cytotoxic, single point]",–
N#Cc1c(-c2ccccc2)c(-c2ccccc2)nn(CC(=O)NNC(=O)Nc2ccc(Cl)cc2)c1=O,active: 5.8 µM,–
COc1ccc(Cn2nnc(C(=O)Nc3ccc4c(c3)OCCO4)c2N)cc1Br,"inconclusive [cytotoxic, partial curve]",–
CCn1c(SCC(=O)Nc2nc3ccccc3s2)nnc1-c1ccc(OC)cc1,"inconclusive [cytotoxic, single point]",–
CCOC(=O)C1=C(CC)Nc2ccccc2N/C1=N\S(=O)(=O)c1cc(Br)ccc1Br,"inconclusive [cytotoxic, partial curve]",–
CCOC(=O)C1(Cc2cccc(OC)c2)CCN(Cc2cccc(OC)c2O)CC1,"inconclusive [cytotoxic, single point]",–
COCCN1C[C@@H](CO)O[C@@H](n2cnc3c(NCc4cc(OC)c(OC)c(OC)c4)ncnc32)C1,"inconclusive [rising, single point]",–
O=c1oc2ccc(Cl)cc2nc1/C=C(\O)c1cccs1,–,inconclusive: -25.5% [cytotoxic]
CCOc1ccc(NC(=O)c2ccc(NC(=S)NC3CCCCC3)cc2)cc1,"inconclusive [cytotoxic, partial curve]",–
CCN(CC)C(=O)[C@H]1CC(CC(=O)NCCCn2ccnc2)C(=O)N2CCc3c([nH]c4ccc(OC)cc34)[C@]12C (some centres not stated),–,inactive: 10.3%

Structure (SMILES),Potency,"activity, negative = toxicity"
CC12CCC=CC1=C(C=O)C1C2CCC2(C)C(O)CCC12 (configuration not stated),"inconclusive [cytotoxic, single point]",–
NC(=O)c1ccccc1NC(=O)/C=C/c1c(Cl)cccc1Cl,"inconclusive [cytotoxic, single point]",–
CCn1c(N2CCN(C(=O)C34CC5CC(CC(C5)C3)C4)CC2)nc2ccccc21,"inconclusive [cytotoxic, single point]",–
Cc1cc(C)c(S(=O)(=O)N2CCCCC2CCNC(=O)C(=O)NCc2ccco2)c(C)c1 (configuration not stated),"inconclusive [cytotoxic, single point]",–
Oc1ccc[n+](CC(O)c2ccccc2)c1 (configuration not stated),–,inactive: -1.28%
Fc1cccc2sc(Nc3nc4cc5c(cc4s3)OCO5)nc12,"inconclusive [cytotoxic, single point]",–
CCc1nc2ccc(C(=O)NCc3ccc(OC)cc3)cn2c1N(CCC(C)C)CCN(C)C,"inconclusive [cytotoxic, single point]",–
OC(c1ccccc1)(c1nc(-c2cccc3cccnc23)cs1)C(F)(F)F (configuration not stated),"inconclusive [cytotoxic, single point]",–
Cn1c(/C=N/Nc2nc3ccccc3[nH]2)nc2ccccc21,"inconclusive [cytotoxic, single point]",–
Clc1ccc(CN2C3=NCCN3c3ccccc32)cc1,"inconclusive [cytotoxic, partial curve]",–
CCCNC(=O)C1(C)CCCN(Cc2ccc(-n3ccnc3)cc2)C1 (configuration not stated),"inconclusive [rising, single point]",–
CCC(CC)C(=O)NCCCN1CCOCC1,"inconclusive [rising, partial curve, poor fit]",–
CC(C)Cn1cnc2c1c(=O)n(CC(=O)NC(=O)NC(C)(C)C)c(=O)n2Cc1ccccc1,–,inactive: -21.7%
COc1ccccc1CNC(=O)Nc1nc(C(N)C(C)C)cs1 (configuration not stated),"inconclusive [cytotoxic, single point]",–
COc1ccc(CN(C)C(=O)Cn2cnc(C(=O)Nc3ccc(C)c(C)c3)n2)cc1OC,–,inactive: 2.22%
Cc1[nH]c2ccccc2c1C(=O)C(=O)NCc1cccs1,–,inactive: 8.1%
COc1cccc(/C=N/NC(=O)CNC(=O)C(c2ccccc2)c2ccccc2)c1O,"inconclusive [cytotoxic, partial curve]",–
c1ccc2c(c1)CC/C2=N/Nc1nc2ccccc2[nH]1,"inconclusive [cytotoxic, single point]",–
O=C(/C=C\Nc1ccc2c(c1)OCO2)c1ccccn1,"inconclusive [cytotoxic, single point]",–
COc1ccc(NC(=O)Cc2ccc(C)cc2)cc1S(=O)(=O)N1CCCCC1,–,inactive: -13.7%
CC(C(=O)Nc1ccc(S(=O)(=O)N2CCCC2)cc1)N(C)CC(=O)Nc1cccc(F)c1 (configuration not stated),–,inconclusive: -33.8% [cytotoxic]
